Test results: PubChem BioAssay AID2546 (National Center for Advancing Translational Sciences (NCATS), 2010)
In all, about 310,000 compounds went through this assay and about 11,000 (3.5%) were called active. This list was built around the results that the source calls inconclusive (neither active nor inactive); the mix of calls is not that of the screen. Calls come from the whole dose curve; as a rule, active = well fitted inhibition curve with a large enough effect; inconclusive = small, poorly fitted or top-dose-only effect, or effect the other way; inactive = flat fitted curve, though single readings scatter. Potencies of inconclusive entries are left out as doubtful fits.
% is set by controls: 0 for no effect and ±100 for the full control effect; potency is the fitted concentration of half-maximal effect; tags give direction and shape of the fitted curve.

Assay: VP16 counterscreen qHTS for inhibitors of ROR gamma transcriptional activity;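 note: Gal4-VP16 expression switched on by copper sulfate through the metallothionein promoter; nearly all actives have a fitted effect of over 50% in size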
Settings: Drosophila S2 Gal4-VP16 UAS-luciferase, luminescence, 20 h; activity, negative = inhibition: at 53.6 µM (top of the series)
In the case of `CC(C)(C)c1cc(C(C)(C)C)cc(S(=O)(=O)CCc2ccccn2)c1`, the “activity, negative = inhibition” value is reported as inactive: -19.4%. With `O=C(NC(=S)N1CCCCC1c1cccnc1)c1ccc(F)cc1` (centres undefined) the Potency was active: 2.51 µM. For `Cn1c(CN2CCOCC2)nnc1SCC(=O)Nc1ccc([N+](=O)[O-])cc1O`, the Potency was inconclusive [inhibitor, single point]. In the case of `CC(=O)N1c2ccc(S(=O)(=O)N3CCC(C(=O)Nc4cccc(C)n4)CC3)cc2CC1C` (centres undefined), the Potency is reported as inconclusive [inhibitor, single point]. In the case of `Cc1ccc(C2(O)CN(c3ccccc3C)C3=[N+]2CCS3)cc1` (centres undefined), the Potency is reported as inconclusive [inhibitor, single point]. With `Cc1ccccc1C(=O)Nc1ccc2c(c1)CCCN2C(=O)c1cccs1` the “activity, negative = inhibition” value was inactive: 1.32%. With `O=Cc1ccc(N2Cc3ccccc3C2)cc1` the Potency was inconclusive [inhibitor, partial curve]. For `CC1CN(C(=O)C2CCCC2)C(C)CN1C(=O)C1CCCC1` (centres undefined), the “activity, negative = inhibition” value was inactive: 3.6%. For `O=[N+]([O-])c1ccccc1/C=N/n1c(-c2ccccc2)n[nH]c1=S`, the Potency was inconclusive [inhibitor, single point]. In the case of `COc1ccc(CNc2nc3ccc(C)cc3s2)c(OC)c1OC`, the Potency is reported as inconclusive [inhibitor, single point]. In the case of `CCCCn1c(NCc2ccc(N(C)C)cc2)nc2ccccc21`, the Potency is reported as active: 12.6 µM. In the case of `CN(c1ccccc1)S(=O)(=O)c1ccc(Cl)c(C(=O)Nc2nn[nH]n2)c1`, the “activity, negative = inhibition” value is reported as inactive: 3.87%. With `COc1ccc(C2NC(=S)NC3=C2CCc2cc(OC)ccc23)cc1` (centres undefined) the Potency was inconclusive [inhibitor, single point]. In the case of `O=C(CNS(=O)(=O)c1ccc2ccccc2c1)NCCc1ccccn1`, the “activity, negative = inhibition” value is reported as inactive: 3.76%. In the case of `Cc1nc2cc(NC(=O)c3ccco3)ccc2n1C`, the Potency is reported as inconclusive [inhibitor, single point]. With `CC(/C=C1\SC(=S)N(NS(=O)(=O)c2ccccc2)C1=O)=C\c1ccccc1` the “activity, negative = inhibition” value was inactive: -3.13%. In the case of `CC(C)(C)C(=O)NC(=S)Nc1cc(C(F)(F)F)ccc1N1CCOCC1`, the Potency is reported as inconclusive [inhibitor, single point]. For `Cc1cccc2nc(-c3cccnc3)c(NCCC(C)C)n12`, the Potency was inconclusive [inhibitor, single point]. For `CCCCCCOC(=O)Sc1nc2ccccc2o1`, the Potency was inconclusive [inhibitor, single point]. In the case of `COc1cc(/C=N/NC(=O)CCOc2ccccc2C)cc(Br)c1O`, the Potency is reported as inconclusive [activator, single point]. In the case of `CNc1cc(-c2ccccc2C(F)(F)F)ncn1`, the “activity, negative = inhibition” value is reported as inactive: -1.94%. For `CC(=O)c1cn(CC(=O)NCc2cccnc2)c2ccccc12`, the Potency was inconclusive [inhibitor, single point]. With `N[C@@H](Cn1cc(F)c(=O)[nH]c1=O)C(=O)O` the “activity, negative = inhibition” value was inactive: 7.76%. For `CCOC(=O)c1ccc(-n2[nH]c(-c3ccccc3)cc2=O)cc1`, the Potency was active: 5.62 µM. With `CCOC(=O)C(C)c1c(C(=O)c2ccc(C)nc2)c2ccccc2n1C` (centres undefined) the “activity, negative = inhibition” value was inactive: 9.37%. For `Clc1cccc(CSc2ccc(-c3ccco3)nn2)c1`, the Potency was inconclusive [activator, full curve]. With `COc1cccc(/C=N/Nc2nc3ccccc3[nH]2)c1OC` the Potency was inconclusive [inhibitor, single point]. In the case of `CCCS(=O)(=O)N1CCCC(C(=O)NCCc2cccc(C)c2)C1` (centres undefined), the “activity, negative = inhibition” value is reported as inactive: -5.51%. In the case of `CCc1ccc(S(=O)(=O)/N=C2\C=C(Nc3ccc(C(=O)O)cc3)C(=O)c3ccccc32)cc1`, the Potency is reported as inconclusive [inhibitor, single point]. With `CCCOc1cccc(-c2nn(-c3ccccc3)cc2/C=C(\C#N)C(=O)NCCCn2ccnc2)c1` the Potency was inconclusive [inhibitor, single point]. With `O=c1c(-c2cccs2)nc2cnc(Nc3ccccc3)nc2n1C[C@H]1CCCO1` the “activity, negative = inhibition” value was inactive: 5.95%. With `CN(CCc1ccccn1)C(=O)CC1C(=O)NCCN1Cc1ccc(-c2ccccc2)cc1` (centres undefined) the Potency was inconclusive [inhibitor, single point]. With `O=C1C2=CC[C@H]3C(=O)N(C4CCCCC4)C(=O)[C@@H]3[C@@H]2[C@H](O)[C@@H]2O[C@H]12` the Potency was inconclusive [inhibitor, single point]. In the case of `Clc1ccc(-c2ncc3ccccn23)cc1`, the Potency is reported as inconclusive [inhibitor, single point]. With `CCN(CC)S(=O)(=O)c1cccc(C(=O)N2CCCCC2)c1` the “activity, negative = inhibition” value was inactive: 12%. In the case of `NS(=O)(=O)c1ccc(N2CCN(CCOc3ccc(Cl)cc3)CC2)nc1`, the Potency is reported as inconclusive [inhibitor, single point]. For `O=C(COC(=O)c1ccc(-c2ccccc2)cc1)Nc1ccccc1-c1ccccc1`, the Potency was inconclusive [inhibitor, single point]. With `COc1ccc(S(=O)(=O)N2CCSC2c2ccc(OC)c(OC)c2)cc1` (centres undefined) the “activity, negative = inhibition” value was inactive: -2.42%. In the case of `Cc1sc(-n2c(C)cc(/C=C3\SC(=S)NC3=O)c2C)c(C#N)c1C`, the Potency is reported as inconclusive [activator, single point]. With `COc1ccc(-c2cc3nc(CCl)[nH]c(=O)c3s2)cc1` the Potency was active: 10 µM. With `CCOc1ccc(NC(=O)CN(C)C(=O)c2cn(-c3ccccc3)nc2-c2cccs2)cc1OCC` the “activity, negative = inhibition” value was inactive: -6.74%. With `N/C(Cc1ccc([N+](=O)[O-])cc1)=N\OC(=O)c1ccccc1Br` the Potency was active: 11.2 µM. For `CCCC1=NN2C(=N)/C(=C\c3cc(C)n(-c4cc(C)cc(C)c4)c3C)C(=O)N=C2S1`, the Potency was inconclusive [inhibitor, single point]. For `Cc1ccc(-c2cc(C(=O)NN=C3CCCC3)c3ccccc3n2)cc1`, the Potency was inconclusive [inhibitor, partial curve]. For `COc1cccc(CNc2ccc(Br)cn2)c1O`, the Potency was inconclusive [inhibitor, single point]. With `c1ccc(-c2nc3nc4ccccc4nc3n2Cc2ccco2)cc1` the Potency was active: 20 µM. For `COc1ccc(-c2cc(C(=O)N3CCc4ccccc4C3)no2)cc1OC`, the Potency was inconclusive [inhibitor, single point]. With `COC(=O)c1cc(S(=O)(=O)N2CCN(c3cccc(OC)c3)CC2)cn1C` the “activity, negative = inhibition” value was inactive: 5.18%. For `O=C(CSc1ccc(-c2nc3ccccc3[nH]2)cn1)Nc1ccc2c(c1)OCCO2`, the “activity, negative = inhibition” value was inactive: -8.83%. With `O=C(/C=C/c1ccc2c(c1)OCO2)c1ccco1` the Potency was inconclusive [inhibitor, single point]. For `Cc1cc(C)c2c(=O)[nH]c(SCC(=O)c3ccc(C)c(C)c3)nc2n1`, the Potency was inconclusive [inhibitor, partial curve]. For `CC(=O)OC1COC(n2c(O)c(N=NC(N)=S)c3ccccc32)C(OC(C)=O)C1OC(C)=O` (centres undefined), the Potency was active: 10 µM. In the case of `COCCCNC(=S)N/N=C/c1ccc2ccccc2c1`, the Potency is reported as active: 17.8 µM. With `O=C(N/N=C/c1ccc(N2CCOCC2)o1)c1cccc(F)c1` the Potency was active: 12.6 µM. With `O=C1CCN(Cc2ccccc2)CCN1[C@H](CO)Cc1ccccc1` the “activity, negative = inhibition” value was inactive: 3.18%. In the case of `Cc1ccc(N=Cc2c(O)ccc3ccccc23)cc1F`, the Potency is reported as inconclusive [inhibitor, single point]. For `Cc1c(NC(=S)NC(=O)c2cccc(Cl)c2)c(=O)n(-c2ccccc2)n1C`, the “activity, negative = inhibition” value was inactive: -1.08%. With `Cc1cccc(NC(=S)NCCC(c2ccccc2)c2ccccc2)c1` the Potency was active: 7.08 µM. In the case of `C=CCn1c(=O)c(C(=O)NCCc2ccccc2)c(O)c2ccccc21`, the Potency is reported as inconclusive [inhibitor, single point]. With `c1ccc(C(Cc2nc(-c3ccccn3)no2)c2ccccc2)cc1` the Potency was inconclusive [inhibitor, single point]. In the case of `O=C(Nc1ccccc1F)Nc1cc(S(=O)(=O)N2CCOCC2)ccc1N1CCCC1`, the “activity, negative = inhibition” value is reported as inactive: 14.4%. With `CC(C)c1nnc(NC(=O)c2cc3ccccc3o2)s1` the Potency was inconclusive [activator, full curve, poor fit]. With `COc1cc2c(cc1OC)C(c1ccc(-c3ccc(Cl)cc3Cl)o1)=NCC2` the Potency was active: 20 µM. In the case of `C=C(C)Cn1c(SCC(=O)N/N=C/c2c(O)ccc3ccccc23)nc2ccccc2c1=O`, the Potency is reported as active: 2.51 µM. With `Cc1cccc(N2CCN(S(=O)(=O)c3ccc4c(c3)CC(=O)N4C)CC2)c1C` the “activity, negative = inhibition” value was inactive: 3.97%. With `Cc1ccc(Nc2nnc(SCC(=O)Nc3ccc(S(=O)(=O)N4CCOCC4)cc3)s2)cc1` the Potency was inconclusive [inhibitor, single point]. For `CN(C)c1ccc(/C=C(/C(=O)c2ccc(Cl)cc2Cl)n2cncn2)cc1`, the Potency was inconclusive [inhibitor, single point]. For `O=C(CN(c1cccc(C(F)(F)F)c1)S(=O)(=O)c1ccc(Cl)c([N+](=O)[O-])c1)NCc1ccccc1Cl`, the Potency was inconclusive [inhibitor, single point]. For `CC(C)Cn1c(N)c(C(=O)CSc2cc(Cl)ccc2Cl)c(=O)n(C)c1=O`, the Potency was inconclusive [activator, single point]. With `Cc1ccc(N/C=C/C(=O)C(C)(C)C)c(O)c1` the Potency was inconclusive [inhibitor, single point]. For `COc1ccc2c(c1)C=C(CN1CCC(CO)(CCc3ccccc3)CC1)CO2`, the “activity, negative = inhibition” value was inactive: -1.99%. For `Cc1nc(N2CCN(C(=O)c3ccco3)CC2)nc2c1C(=O)CCC2`, the Potency was inconclusive [inhibitor, single point]. With `COc1ccc(NC(=S)SC)cc1OC` the Potency was inconclusive [inhibitor, partial curve, poor fit]. For `Cc1cc([N+](=O)[O-])ccc1-c1ccc(/C=N/NC(=O)Cc2ccccc2)o1`, the Potency was inconclusive [inhibitor, single point].
